Results as given in the supplement of paper PMC3334620.
Whole data set: some 33,000 sequences, median “E-score (-0.5 to 0.5)” near -0.012, cut for the highest 2% near 0.29. The list shows a part of the results.

biological target: T1, Ybr033w (UniProt P38073); test: PBM E-score (8-mer binding enrichment) (E-score (-0.5 to 0.5)); higher = stronger / more preferred TF binding; most listed sequences are background and not binding sites; conditions: protein concentration: 200 nM; construct: GST-full length
T1 sequence: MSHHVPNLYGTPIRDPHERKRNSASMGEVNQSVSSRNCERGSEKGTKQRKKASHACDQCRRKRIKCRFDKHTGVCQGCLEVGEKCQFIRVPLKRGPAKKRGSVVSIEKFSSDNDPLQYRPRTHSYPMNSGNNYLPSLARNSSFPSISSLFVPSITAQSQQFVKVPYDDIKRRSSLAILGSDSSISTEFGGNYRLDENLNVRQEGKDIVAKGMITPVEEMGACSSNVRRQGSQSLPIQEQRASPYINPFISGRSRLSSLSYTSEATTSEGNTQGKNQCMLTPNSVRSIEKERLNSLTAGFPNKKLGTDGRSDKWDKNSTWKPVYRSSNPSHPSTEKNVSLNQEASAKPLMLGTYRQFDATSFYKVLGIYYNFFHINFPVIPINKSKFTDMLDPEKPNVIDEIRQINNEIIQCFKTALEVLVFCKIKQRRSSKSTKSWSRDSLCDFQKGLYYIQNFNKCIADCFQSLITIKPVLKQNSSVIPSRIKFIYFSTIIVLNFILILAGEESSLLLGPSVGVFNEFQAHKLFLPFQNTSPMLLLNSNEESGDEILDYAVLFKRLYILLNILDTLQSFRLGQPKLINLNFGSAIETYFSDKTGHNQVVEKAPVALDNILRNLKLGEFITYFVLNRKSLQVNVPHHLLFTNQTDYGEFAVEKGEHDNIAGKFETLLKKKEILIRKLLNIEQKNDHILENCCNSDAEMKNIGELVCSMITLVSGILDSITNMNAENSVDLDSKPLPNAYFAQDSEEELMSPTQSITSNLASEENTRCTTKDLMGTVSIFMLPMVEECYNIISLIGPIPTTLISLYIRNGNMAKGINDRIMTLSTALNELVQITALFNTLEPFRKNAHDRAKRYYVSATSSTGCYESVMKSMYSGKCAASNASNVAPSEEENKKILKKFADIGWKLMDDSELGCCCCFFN
Outline: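 Each ungapped eight-base word and its reverse complement, pooled, received an E-score from the Universal PBM Analysis Suite. Underlying scans, normalised with masliner, recorded fluorescent anti-GST bound to GST-tagged yeast transcription factors. These were applied at about 100-200 nM to universal all-10-mer Agilent arrays double-stranded by primer extension.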

Sequence | PBM E-score
CACGCCAA | -0.00942
ATAAAAGC | 0.226
GATGAGGC | -0.397
TTACCAAA | 0.235
AGTGGTTC | 0.00899
CCTGTACG | -0.0856
AGTGTCGG | 0.0114
CACGTCGG | -0.194
CAATCGGA | 0.0902
ATAAACGG | 0.245
TACATACA | 0.245
GATGATAC | 0.0761
AGAAAAGG | -0.0204
GCTAATAA | 0.0756
CACCCCTG | -0.268
ACCGTAGG | -0.348
CAGGCAGG | -0.183
AATCGTCA | -0.0213
GCCCGCGC | -0.0448
CGCGTTAA | -0.0483
CGGCGACG | -0.135
CCTATCCG | -0.163
AATCGTGA | 0.0113
GGGAGATA | -0.0454
AGTATGAT | 0.168

Sequence | PBM E-score
TCATCGAA | 0.109
CGAACACA | 0.0166
AGAGAATC | 0.0652
CCGATCGC | -0.129
GTCTAAAA | -0.0699
CCGGTGAG | -0.229
GGCGAGCA | -0.0236
CGCGGTTA | -0.0575
ACGTTTTG | -0.019
AAAGGTGA | 0.0608
GGATTGCA | 0.0644
CGGAAGTA | 0.14
GATAATAA | 0.194
CGGGCATC | -0.173
GATATTGC | 0.101
CCCCACCG | -0.222
AGGTGCCG | -0.118
GCCGAAGC | -0.183
ATGCCCAG | -0.131
CAGTAAGC | 0.029
CGCTAAAC | -0.083
CCGTAGAG | -0.206
GTTCACCA | -0.0286
AATTCATC | 0.145
AATGAGCA | 0.0856

Sequence | PBM E-score
AGCCCCAG | -0.128
GAAAACCC | -0.0428
CGTTCTTC | 0.0897
GCGAAGAC | -0.205
ATGTCCAA | 0.0809
TATGCTCA | 0.171
TGCGTAAA | 0.166
GCTGTGAA | -0.0256
CCTTGCAA | -0.188
ACAGGTTA | 0.0107
CCCAACCA | -0.00754
ACGGGAGA | -0.112
ATTCAAAC | 0.167
AGTAGTCG | -0.0439
AGGAGTAC | -0.2
CACCATTC | -0.0034
ACCAATGA | -0.0131
AATTTTAT | 0.331
ATAGTTGG | -0.00301
AGTCCGAA | 0.0126
AATAAGAG | 0.171
ACCGGGAC | -0.128
GTGACGAA | 0.0494
CCCAAGGG | -0.29
GGCTGCTA | -0.0804

Sequence | PBM E-score
CCGCCCTC | -0.172
GCACTAGC | -0.2
GACCAATA | 0.0671
AGTGCCAT | -0.083
CCGTCGGA | -0.201
ACCATGCT | -0.0803
CAAGTTTC | 0.166
CTAGCTGC | -0.336
GACTGACC | -0.205
ACCCACAA | 0.0993
AGAGCAGC | -0.271
CAACTCGG | -0.105
TCCATTCA | 0.0959
ATACGTCA | 0.113
AGCGGTCG | -0.243
ACCTCCCA | -0.283
AAACTTGC | 0.185
ATGTTCTA | -0.00747
AAGGCATT | -0.0474
CCTTATTA | 0.135
AATTGACT | 0.139
ACCCACTC | -0.0665
CCCCAGAG | -0.317
CAGGACTC | -0.176
AAAGGTGT | -0.187

Sequence | PBM E-score
CACGTACC | -0.157
ACCAGCCA | -0.00569
ATCGGCCA | -0.218
CGTGTCAC | 0.0273
GACGACGC | -0.307
CGGGTGTA | -0.0764
TACAGCGA | -0.0975
CTTGTACC | -0.136
GCTTTCCC | -0.253
AAGGTTAC | 0.0636
ATTCAATG | 0.089
AAATGGCT | 0.0549
ACTACTAC | 0.153
ATCGTCTC | -0.0845
TGCATGCA | -0.0445
AGCTCGTA | 0.0191
GAATCCTC | -0.0795
CCCAGCTC | -0.216
CAGAGTCC | -0.089
CGTGGCAC | -0.228
ACGTACAA | 0.107
CTTTAGGC | -0.0153
CCCTAGCC | -0.248
GCCCGGCA | -0.261
ATGGGAGG | -0.105

Sequence | PBM E-score
ATGACGCA | -0.0224
CTCAACGA | -0.00223
GGGCTGAC | -0.224
AAGTAGAG | -0.226
ACGGGTAC | -0.167
CTATTACC | -0.102
CCAGTGGC | -0.243
TAAAATGA | 0.217
AAGGTCGG | -0.0863
CCCACTAA | -0.0112
ACACATCT | 0.0852
AGCTTCTA | 0.0252
AATAAGTG | 0.162
TACCAGAA | 0.231
AGAAATGA | 0.172
ATGACCCC | -0.125
ACCGACTC | -0.114
CGTTCGAC | -0.0801
ATTGCGCC | -0.123
AGCGGCTA | -0.186
TCAATGAA | 0.139
AGACATAG | 0.00974
CGAACATA | 0.2
CTATGTGA | -0.0558
AGGTTAGC | -0.0766

Sequence | PBM E-score
AGAACACA | 0.0194
TAGACCAA | 0.146
GCACCTAC | -0.232
GGATCCCA | -0.085
CAGTCAAG | -0.0633
CAGTGATG | 0.0429
AAAAAATC | 0.248
ACTTGGAC | 0.127
CCGCTGAG | -0.203
GGGGGGAC | -0.429
ACCTGCCG | -0.15
ACCTTCTC | -0.0404
GTACTTGA | 0.115
CCTCGTAG | 0.0213
CGCGGCAA | -0.104
ATTTCATA | 0.076
ACTACATG | 0.135
GTCAGGCA | -0.096
CGGATACG | -0.111
ATCTACGG | 0.0177
ACAAAGAG | -0.0759
CAGTCGGC | -0.229
AGCTCACT | -0.194
CCAGCCAA | -0.0553
CGTTGCTA | -0.00166

Sequence | PBM E-score
AGTTCGTG | -0.0686
AGCTATCG | -0.109
CGTGTTGA | -0.0106
CTTAACGA | 0.0835
CGTAGTGC | -0.0489
CGAGAACA | 0.0107
GATATGCC | -0.106
CAGATAGA | -0.0383
CCGAGCAA | -0.13
CCGCACCA | -0.00985
CCGTGGTC | -0.277
GGAAGCCA | -0.344
CCGGGAGA | 0.00614
GTCTTAAC | -0.0384
CAATTTAC | 0.0999
CCCCAGTA | -0.209
CCGAAACG | 0.0484
ATAGGCTC | -0.097
CCAAGAGC | -0.25
GCCCACGC | -0.22
ACGGGTGA | -0.201
CGTCTTCA | -0.0568
AAATGTAC | 0.155
ACGAGTCA | -0.117
CATAATTC | -0.00123

Sequence | PBM E-score
AGTGATCC | -0.091
TAAACTAA | 0.271
CGAAGAAA | 0.156
AAATTCCG | 0.309
TGCCGGAA | 0.208
GATCCACA | -0.016
GCTGTTTA | 0.235
TCACACCA | 0.0909
ACACTATC | 0.11
GACGACTA | -0.0491
AGCCGGTC | -0.263
CCTCTCCA | -0.228
CAGAATGC | -0.0455
ACTTGGGG | -0.19
GCAACTGC | 0.0843
CCAGAGAA | 0.0385
AATGCCCA | -0.195
GCCCATTA | -0.069
ATCTCGGC | 0.0213
